# Where “and” joins values, the source holds several entries; their conditions need not be identical. Equal values may be shown once. Screen size: about 390,000 compounds; about 1,400 (0.36%) were called active. The shares of active, inactive and inconclusive entries below differ from those in the screen. Calls come from the whole dose curve; as a rule, active = well fitted inhibition curve with a large enough effect; inconclusive = small, poorly fitted or top-dose-only effect; inactive = no such curve, though single readings can be large or run the other way. Potencies beside an inconclusive call are fits to weak or partial responses and may not hold up.
# Biological target: Flap endonuclease 1 (Homo sapiens) (UniProt P39748)
# Assay: qHTS Assay for the Inhibitors of Human Flap endonuclease 1 (FEN1). Note: nearly all actives have a fitted effect of over 65% in size.
# Conditions: Recombinant FEN1 flap cleavage, fluorescence, 15 min; series mostly up to 114 µM
# In short: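 Compounds are tested as a concentration series against 10 nM FEN1; after a 15 min room-temperature preincubation, 50 nM substrate starts cleavage, with plate reads at 0 and 15 min. Normalized responses are fitted by a Hill equation.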
# Potency is the fitted concentration of half-maximal effect; tags give direction and shape of the fitted curve.
# Chain of UniProt P39748 (P39748 whole entry, looked up): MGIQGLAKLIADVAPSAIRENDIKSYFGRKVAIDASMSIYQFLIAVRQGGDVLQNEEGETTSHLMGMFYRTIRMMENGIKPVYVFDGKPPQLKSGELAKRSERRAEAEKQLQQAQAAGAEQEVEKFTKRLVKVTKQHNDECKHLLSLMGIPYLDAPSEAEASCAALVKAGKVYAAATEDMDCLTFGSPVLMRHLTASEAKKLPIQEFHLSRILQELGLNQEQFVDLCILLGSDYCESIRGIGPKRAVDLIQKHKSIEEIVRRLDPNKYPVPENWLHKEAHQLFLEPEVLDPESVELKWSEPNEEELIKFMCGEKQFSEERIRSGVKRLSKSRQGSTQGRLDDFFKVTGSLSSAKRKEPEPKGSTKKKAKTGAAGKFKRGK
row,SMILES,Potency
1,Cc1ccc(NC(=O)CN(C)C(=O)c2ccc3[nH]c4c(c3c2)CC(C)CC4)cc1 (stereo not drawn),"inconclusive: 79.4 µM [inhibitor, partial curve, poor fit]"
2,O=C(COc1ccc(Cl)cc1Cl)NCCCCc1ccccc1,"inconclusive: 56.2 µM [inhibitor, partial curve, poor fit]"
3,CCCNC(=O)c1ccc2c(=O)c(O)c(-c3ccc(C)cc3)[nH]c2c1,"inconclusive: 25.1 µM [inhibitor, full curve]"
4,Cc1cc(O)c(C(C)C)cc1N=Cc1ccccc1O,"inconclusive: 22.4 µM [inhibitor, partial curve, poor fit]"
5,Cc1nc2c(C(=O)N(C)Cc3ccccc3)c[nH]n2c(=O)c1Cc1ccc(Cl)cc1,"inconclusive: 25.1 µM [inhibitor, full curve]"
6,O=C(N/N=C/c1c(O)ccc2ccccc12)c1ccc(CO)nc1,"inconclusive: 79.4 µM [inhibitor, partial curve, poor fit]"
7,CCCc1nc2sc3c(SCC(=O)NCc4ccco4)ncnc3c2c2c1CCC2,"inconclusive: 79.4 µM [inhibitor, partial curve]"
8,CC(/C=N/n1c(-c2cc(C)[nH]n2)n[nH]c1=S)=C\c1ccco1,"inconclusive: 22.4 µM [inhibitor, partial curve, poor fit]"
9,COC(=O)c1cc(OC)c(OC)cc1NC(=O)C(C)c1ccc([N+](=O)[O-])cc1 (stereo not drawn),"inconclusive: 39.8 µM [inhibitor, partial curve, poor fit]"
10,COc1cc(/C=C/C(=O)Nc2ccc3[nH]c(=O)[nH]c3c2)cc(OC)c1OC,"inconclusive: 79.4 µM [inhibitor, partial curve, poor fit]"
11,CNc1ccc(Br)cc(C(=O)/C=C/c2cc(OC)ccc2OC)c1=O,"inconclusive: 100 µM [inhibitor, partial curve, poor fit]"
12,C(C#CCCCCCCCCC[n+]1ccccc1)#CCCCCCCCCC[n+]1ccccc1,"inconclusive: 79.4 µM [inhibitor, partial curve, poor fit] and inconclusive: 89.1 µM [inhibitor, single point]"
13,O=C(/C=C/c1ccco1)NCC1OCCc2ccccc21 (stereo not drawn),"inconclusive: 56.2 µM [inhibitor, partial curve, poor fit]"
14,Oc1cccc(Nc2c3ccccc3nc3ccccc23)c1,"inconclusive: 14.1 µM [inhibitor, full curve]"
15,O=C(NC(=S)Nc1cccnc1Cl)c1ccc(Cl)cc1,inactive
16,COc1cccc(C(=O)CC(=O)C(=O)Nc2cc(Cl)c(OC)cc2OC)c1,"inconclusive: 25.1 µM [inhibitor, full curve, poor fit]"
17,CC(=O)N(C(C)=O)c1nc(-c2ccccc2)cn1/N=C/c1cccc([N+](=O)[O-])c1,"inconclusive: 56.2 µM [inhibitor, partial curve, poor fit]"
18,COc1ccc(N=Cc2c(O)n(-c3cccc(C)n3)c(=O)c3ccccc23)c(OC)c1,inactive
19,COc1ccc(C2C3C(=O)N(Cc4ccccc4)C(=O)C3ON2c2ccccc2)c(OC)c1OC (stereo not drawn),"inconclusive: 50.1 µM [inhibitor, partial curve, poor fit]"
20,O=C(COC(=O)COc1ccccc1)Nc1cccc([N+](=O)[O-])c1,inactive
21,C/C=C/C=C\C(=O)Nc1cccc(C2=NOC3(C2)C[C@@H](C(N)=O)N(C(=O)c2cc([N+](=O)[O-])cc([N+](=O)[O-])c2)C3)c1 (stereo partly drawn),inactive

row,SMILES,Potency
1,Cc1ccc(NC(=O)Cn2c(=O)oc3ccccc32)cc1Cl,inactive
2,Cn1c(=O)c2c(ncn2CC(=O)Nc2cc(Cl)cc(Cl)c2)n(C)c1=O,"inconclusive: 100 µM [inhibitor, partial curve, poor fit]"
3,CCC(C)NC(=O)c1c(N)n(/N=C/c2ccccn2)c2nc3ccccc3nc12 (stereo not drawn),"inconclusive: 35.5 µM [inhibitor, partial curve, poor fit]"
4,Cc1ccc(C)c(S(=O)(=O)/N=C2\C=C(NS(=O)(=O)c3ccccc3)C(=O)c3ccccc32)c1,"inconclusive: 25.1 µM [inhibitor, partial curve, poor fit]"
5,O=c1c(Cl)c(O)c2cccc3c4ccccc4n1c23,"inconclusive: 50.1 µM [inhibitor, partial curve, poor fit]"
6,CCCn1c(SCC(=O)Nc2ccccc2Cl)n[nH]c1=O,inactive
7,C/C=C/c1cc(OC)c2c(c1)[C@H](C)[C@@H](c1ccc(O)c(OC)c1)O2,"inconclusive: 79.4 µM [inhibitor, partial curve]"
8,O=C(CCCN1C(=O)/C(=C/c2ccco2)SC1=S)Nc1cccc(C(=O)O)c1,"inconclusive: 56.2 µM [inhibitor, partial curve, poor fit]"
9,Cc1ccc(NC(=O)CN2C(=O)S/C(=C\c3ccc(C(=O)O)cc3)C2=O)cc1,inactive
10,Cc1ccc(S(=O)(=O)N[C@@H](Cc2ccccc2)C(=O)CCl)cc1,"inconclusive: 8.44 µM [inhibitor, single point]"
11,CCc1ccc(Oc2nc3c(C)cccn3c(=O)c2/C=C(\C#N)c2nc3ccccc3s2)cc1,"inconclusive: 50.1 µM [inhibitor, partial curve]"
12,Cn1cc(/C=C/c2ccnc3ccccc23)c2ccccc21,"inconclusive: 44.7 µM [inhibitor, partial curve, poor fit]"
13,COc1ccc(-c2nc3scc(CCNS(=O)(=O)c4cccc(C(C)=O)c4)n3n2)cc1,inactive
14,Cc1ccc(CCNC(=O)c2ccc(CSCc3ccc(C)cc3)o2)cc1,"inconclusive: 89.1 µM [inhibitor, single point]"
15,CC(=O)Oc1cc(O)c2c(=O)c(OC(C)=O)c(-c3ccc(OC(C)=O)c(OC(C)=O)c3)oc2c1,active: 2.82 µM
16,COc1ccc(NC(=O)/C(Cl)=C(/Cl)S(=O)Cc2ccc(Cl)cc2)cn1 (stereo not drawn),inactive
17,Cc1c(C(=O)Nc2ccccc2N2CCN(C)CC2)oc2ccc(F)cc12,"inconclusive: 50.1 µM [inhibitor, partial curve]"
18,NCCCC[C@@H]1NC(=O)c2cc([N+](=O)[O-])cc(F)c2NCCCC[C@@H](C(N)=O)NC(=O)CNC1=O,"inconclusive: 89.1 µM [inhibitor, single point]"
19,COc1cc(/C=C/C(=O)N2CCCN(C(=O)/C=C/c3cc(OC)c(OC)c(OC)c3)CC2)cc(OC)c1OC,"inconclusive: 56.2 µM [inhibitor, partial curve, poor fit]"
20,COc1ccc(Oc2nc3c(c(=O)n(Cc4ccccc4Cl)c(=O)n3C)n2C)cc1,inactive
21,Cc1ccc(N2C(=O)C3C4C=CC(CNC(=S)Nc5ccc(F)cc5)(O4)C3C2=O)cc1 (stereo not drawn),inactive

row,SMILES,Potency
1,Oc1ccc(Nc2nc(-c3ccc(Cl)cc3)nc3ccccc23)cc1,"inconclusive: 39.8 µM [inhibitor, partial curve]"
2,C#CCOCCOCCOCCNc1nc(N2CCN(C(=O)CCCCCCCCCCNC(=O)Cn3cc(CCCCCN)nn3)CC2)nc(N2CCN(C(=O)CCCCCCCCCCNC(=O)[C@@H]([C@H](C)O)n3cc(C)nn3)CC2)n1,"inconclusive: 89.1 µM [inhibitor, single point]"
3,COCCNc1nc(CSc2ccccc2)nc2sc(C)c(C)c12,"inconclusive: 79.4 µM [inhibitor, partial curve, poor fit]"
4,COc1[nH]c(/N=C/c2ccco2)c(C#N)c1C#N,"inconclusive: 89.1 µM [inhibitor, single point]"
5,CC(C)c1c(O)nc(SCC(=O)N2CCCCC2)[nH]c1=O,inactive
6,COc1cccc(-n2ccnc2SCC(=O)Nc2nc3ccc(C)cc3s2)c1,inactive
7,C1=Cc2ccccc2/C1=C\c1cc[cH-]c1.[Fe+2].c1cc[cH-]c1,active: 12.6 µM
8,CCCCNC(=O)c1onc(CSc2cccc3ccccc23)c1C(=O)O,inactive
9,Cc1cc(=O)c2ccccc2n1Cc1ccccc1,inactive
10,COc1ccc2c(c1)C=C/C2=C\c1ccc(N(C)C)cc1,inactive
11,CC(=O)/C=C/c1ccccc1O,inactive
12,Clc1ccc2c(N/N=C/c3cccc(Br)c3)ccnc2c1,inactive
13,Cc1ccc2nc(NC(=O)CCNS(=O)(=O)c3ccc(Br)s3)sc2c1,"inconclusive: 89.1 µM [inhibitor, partial curve, poor fit]"
14,Cc1ccc(C2=NN(S(=O)(=O)c3ccccc3)C(c3ccccc3O)C2)cc1 (stereo not drawn),"inconclusive: 79.4 µM [inhibitor, single point]"
15,CC(=O)[C@@]1(O)CC[C@H]2[C@@H]3C[C@H](C)C4=CC(=O)C=C[C@]4(C)[C@@]3(F)[C@@H](O)C[C@@]21C,"inconclusive: 100 µM [inhibitor, partial curve, poor fit]"
16,CC(C)C(=O)NC(Nc1cccc([N+](=O)[O-])c1)C(Cl)(Cl)Cl (stereo not drawn),inactive
17,O=C1N/C(=N/NC(=O)c2cccc3ccccc23)S/C1=C\c1ccccc1OCc1ccccc1,"inconclusive: 56.2 µM [inhibitor, partial curve]"
18,Cc1ccc2nc(-c3ccc(NC(=O)c4ccco4)cc3)[nH]c2c1,"inconclusive: 79.4 µM [inhibitor, partial curve, poor fit]"
19,Cn1c(=O)c2[nH]c(NN=Cc3cccc(Br)c3)nc2n(C)c1=O,"inconclusive: 50.1 µM [inhibitor, partial curve, poor fit]"
20,Cc1nc2c(nc1C)C(=O)c1ccccc1C2=O,inactive
21,CCc1ccc(-c2cc3c(N4CCN(c5ccccc5)CC4)nccn3n2)cc1,inactive

# Reference: PubChem BioAssay AID588795 (National Center for Advancing Translational Sciences (NCATS), 2011)
